# In PubChem BioAssay AID1347073 (National Center for Advancing Translational Sciences (NCATS), 2019):
# In all, about 45,000 compounds went through this assay and about 200 (0.44%) were called active. Not shown: some 7% with an inconclusive outcome. Calls come from the whole dose curve; as a rule, active = well fitted activation curve with a large enough effect; inconclusive = small, poorly fitted or top-dose-only effect; inactive = no such curve, though single readings can be large or run the other way. Some of the results follow.
# Test: qHTS of TDP-43 Inhibitors: NCGC Sytravon Library Screen; note: 0% is about no effect; nearly all actives have a fitted effect of over 55% in size
# Conditions: yeast TDP-43 toxicity rescue, BacTiter-Glo growth, 24 h; series mostly up to 46.1 µM; growth rescue (activation): at the top concentration
# In short: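 TDP-43-expressing yeast, pregrown in raffinose, seeded at OD600 0.02 in galactose medium with compound for 24 hr at 30 deg C. Growth read by BacTiter-Glo luminescence, so rescue of toxicity appears as activation.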
row,SMILES,growth rescue (activation)
1,CCOC(=O)c1c(NC(=O)CNCC(O)CO)sc(C)c1C (centres undefined),inactive: 4.99%
2,O=C(Cc1ccc(Br)cc1)NCCc1ccc(Cl)cc1Cl,inactive: 3.46%
3,O=C(COC(=O)c1ccc(O)cc1)NCc1ccc2c(c1)OCO2,inactive: 11.2%
4,COc1ccc(NC(=O)CN(C)C2CCCCC2)c([N+](=O)[O-])c1,inactive: 16.7%
5,CSc1ccc(S(=O)(=O)N2CCC(C(=O)NCc3cccnc3)CC2)cc1,inactive: -6.77%
6,Cc1nn(CC(=O)N2CCc3ccccc3C2)c(C)c1[N+](=O)[O-],inactive: 11.7%
7,Cc1ccc(C)c2c1cc(C)c1nnc(SCC(=O)NCc3ccc4c(c3)OCO4)n12,inactive: 19%
8,Cc1ccc(-c2cc(C(=O)NC3CCCC3)no2)cc1,inactive: -2.6%
9,CC(C)n1nnnc1SCC(=O)NCc1ccco1,inactive: 8.61%
10,COc1cccc(/C=C/C(=O)OCC(=O)Nc2ccccc2Sc2ccccc2)c1,inactive: 14.6%
11,CC(NC(=O)c1ccco1)c1nc(-c2ccccc2)no1 (centres undefined),inactive: 9.41%
12,COc1cc(/C=N/NC(=O)CSc2n[nH]c(=O)[nH]c2=O)cc(OC)c1O,inactive: -3.99%
13,CN(C)c1nc2c(c(=O)n(C)c(=O)n2C)n1CC(=O)c1cccs1,inactive: -17.4%
14,CC(=O)N1CCN(c2ccc(S(=O)(=O)NCCN(C(C)C)C(C)C)cc2[N+](=O)[O-])CC1,inactive: 9.42%
15,Cc1ccc(CNC(=O)C2CCCN(c3nc4ccsc4c(=O)s3)C2)cc1 (centres undefined),inactive: 3.1%
16,CN(C)c1ccc(C(=O)N2CCCC2)cc1,inactive: 4.11%
17,COc1cc(C(=O)Nc2ccc3c(c2)N(C(=O)CCN(C)C)c2ccccc2CC3)cc(OC)c1OC,inactive: 19.6%
18,O=C(CCNS(=O)(=O)c1ccc(Br)s1)NCc1ccc(F)cc1,inactive: -3.56%
19,S=C(NCC1CCCO1)NC1CC1 (centres undefined),inactive: -1.26%
20,Cc1ccc(S(=O)(=O)NCC2CCC(C(=O)NCc3cccs3)CC2)cc1 (centres undefined),inactive: -3.55%
21,COc1ccc(C(=O)CC(=O)C(=O)Nc2cccc([N+](=O)[O-])c2C)cc1,inactive: -30.1%
22,O=[N+]([O-])c1ccc(S(=O)(=O)N(CCCN2CCOCC2)Cc2cccs2)cc1,inactive: -1.59%
23,CCCNC(=O)c1cc(C2CCCCN2C(=O)c2ccc(NC(C)=O)cc2)on1 (centres undefined),inactive: 17.2%
24,O=C(CCNC(=O)c1ccccc1Cl)NCCc1ccc(C(F)(F)F)cc1,inactive: 17.4%
25,CN(C)C(=O)CSc1nnc(-c2ccc(S(=O)(=O)N3CCCC3)cc2)n1C,inactive: -17.5%
26,Cc1csc(NC(=O)C(NC(=O)c2ccccc2F)C(C)C)n1 (centres undefined),inactive: -2.88%
27,O=C(CCn1nnc2ccccc21)N1CCN(c2ccccc2)CC1,inactive: 30.2%

row,SMILES,growth rescue (activation)
1,O=C(NCc1nc(-c2ccccc2)no1)Nc1ccc(F)cc1,inactive: 7.25%
2,C=C(C)Cn1c(CCn2c3ccccc3c3ccccc32)n[nH]c1=S,inactive: 25.5%
3,CSc1ccc(CNCC(O)c2ccccc2)cc1 (centres undefined),inactive: 5.28%
4,Cc1ccc2c(COC(=O)C3=COCCO3)cc(=O)oc2c1,inactive: -26%
5,COc1ccc(Cl)cc1NC(=S)N(CCN1CCOCC1)C1CCN(C(C)=O)CC1,inactive: 14.6%
6,CN(CC(=O)NCc1ccco1)CC(=O)Nc1ccc(F)c(F)c1F,inactive: 6.88%
7,COc1cccc(C(=O)Nc2c[nH]c(=O)[nH]c2=O)c1,inactive: 31.4%
8,COC(=O)c1ccc(OC)c(CN2CCCN(Cc3ccc(F)cc3)S2(=O)=O)c1,inactive: -3.16%
9,CCOc1ccccc1N1CCN(C/C=C/c2ccc(N(C)C)cc2)CC1,inactive: 13%
10,COCCn1c(C)nnc1SCC(=O)NNC(=O)c1ccc(Cl)cc1,inactive: -3.82%
11,COc1ccc(CNS(=O)(=O)NCc2ccc(OC)c(OC)c2)cc1OC,inactive: -16.9%
12,NS(=O)(=O)c1ccc(NC(=S)Nc2ccc(S(=O)(=O)N3CCCC3)cc2)cc1,inactive: -6.31%
13,CC(=O)Nc1ccc(S(=O)(=O)NNC(=O)c2cccc(Br)c2)cc1,inactive: 9.9%
14,CC1Cc2ccccc2N1CC(=O)Nc1ccc(N2CCOCC2)cc1 (centres undefined),inactive: 8.09%
15,CCSc1nnc(NC(=O)c2nc(S(=O)(=O)Cc3ccc(F)cc3)ncc2Cl)s1,inactive: -2.59%
16,C/C(=N\NC(=O)c1ccn(C)n1)c1ccco1,inactive: -4.81%
17,COc1ccc(CNC(=O)CN(C)S(=O)(=O)c2ccc(Br)s2)cc1,inactive: -5.07%
18,CC(CN1C(C)CCCC1C)OC(=O)c1ccccc1Br (centres undefined),inactive: 5.72%
19,O=C(CSc1nnc2c(n1)[nH]c1ccc(S(=O)(=O)N3CCOCC3)cc12)Nc1ccc(F)c(F)c1,inactive: 27.7%
20,O=C(Nc1cc2c(cc1C(=O)c1ccc(Br)cc1)OCCO2)c1ccc(Cl)cc1,inactive: -0.281%
21,CC(C)c1ccc(N(CC(=O)N2CCN(Cc3ccccc3)CC2)S(C)(=O)=O)cc1,inactive: -21.8%
22,Cc1ccccc1S(=O)(=O)NC(=O)C1(C)CCN1C(=O)CCc1ccccc1 (centres undefined),inactive: -12.4%
23,CSc1ccc(CN2CCC2(C)C(=O)NCc2ccc3c(c2)OCO3)cc1 (centres undefined),inactive: 8.29%
24,COC(=O)c1ccc(/C=C/c2nc3ccccc3c(=O)[nH]2)cc1,inactive: 8.74%
25,Cc1cc(C)c2c(N)c(C(=O)c3ccc(Br)cc3)oc2n1,inactive: 17.9%
26,Cn1c(=O)[nH]c(=O)c2c1nc(NCCCn1ccnc1)n2CCOc1ccccc1,inactive: 12%
27,Cc1ccc(N2CC(=O)N(CC(=O)O)C2=O)cc1,inactive: -1.19%
